# Measured values taken from PubChem BioAssay (Tox21).
# Results filed as inconclusive are left out. Unless noted, calls follow the shape of the dose curve; as a rule, active = well fitted curve in the direction sought with a large enough effect in the repeat runs; inconclusive = weak or mixed curves; inactive = no such curve, though single readings can be large; an effect the other way counts as inactive or inconclusive. Some structures have more than one record in an assay (separate samples or runs), and their calls can disagree. Certain results were filed several times, with different values. They are shown here; other results are not. The source may hold further records. Results that share an entry repeat one measurement in other runs, samples, wells, individuals or studies. A tag in brackets gives the origin of a value. A, B and so on number the origins entry by entry.
# How the values were obtained:
# [1] = qHTS assay for small molecules that induce genotoxicity in human embryonic kidney cells expressing luciferase-tagged ATAD5 - cell viability (AID 651634; calls by dose curve; also: nearly all actives have a fitted effect of over 25% in size)
# In short: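 HEK293T cells expressing luciferase-tagged ATAD5 were exposed to compound or DMSO for 15.5 hr at 37C, 5% CO2. Viability was then read as live-cell protease activity by CellTiter-Fluor fluorescence after 30 min at 37C.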
# [2] = qHTS assay to identify small molecule antagonists of the glucocorticoid receptor (GR) signaling pathway - cell viability counter screen (AID 720693); also: nearly all actives have a fitted effect of over 55% in size
# [3] = qHTS assay to identify small molecule antagonists of the androgen receptor (AR) signaling pathway using the MDA cell line - cell viability counter screen (AID 743041; also: nearly all actives have a fitted effect of over 45% in size)
# In short: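 Same-well cytotoxicity was assessed by CellTiter-Fluor in MDA-kb2 AR-luc cells after 16 h of compound treatment under R1881 agonism.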
# [4] = qHTS assay to identify small molecule antagonists of the thyroid receptor (TR) signaling pathway (AID 743065); also: nearly all actives have a fitted effect of over 55% in size
# In short: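 GH3.TRE-Luc rat pituitary cells (two TREs driving luciferase) were dosed with compound, then stimulated with 1 nM T3 (final) for 23.5 h at 37 C. ONE-Glo luminescence was the read-out, with CellTiter-Fluor fluorescence as the cytotoxicity counter-screen.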
# [5] = qHTS assay to identify small molecule antagonists of the peroxisome proliferator-activated receptor gamma (PPARg) signaling pathway - cell viability counter screen (AID 743194); also: nearly all actives have a fitted effect of over 55% in size
# From the text: U.S. Tox21 Program National Center for Advancing Translational Sciences [NCATS] NIH Chemical Genomics Center [NCGC] U.S. Environmental Protection Agency [EPA] National Institutes of Environmental Health Sciences [NIEHS] National Toxicology Program [NTP] U.S. Food and Drug Administration [FDA] Tox21 Assay Overview: The peroxisome proliferator-activated receptors (PPARs) are lipid-activated transcription factors of the nuclear receptor superfamily with three distinct subtypes namely PPAR alpha, PPAR delta (also called PPAR beta) and PPAR gamma (PPARg). All these subtypes heterodimerize with Retinoid X receptor (RXR) and these heterodimers regulate transcription of various genes. […]
# Tox21 Assay Protocol Summary: PPARg-bla cells were dispensed at 3000 cells/5uL/well in 1536-well black wall/clear bottom plates using a Multidrop Combi (Thermo Fisher Scientific, Waltham, MA) dispenser. […] The assay plates were incubated at room temperature for 1 h and fluorescence intensity was measured by an Envision plate reader (PerkinElmer, Shelton, CT). For cell viability readout that measures cytotoxicity, 4 ul/well of CellTiter-Glo reagent was added into the assay plates using a Flying Reagent Dispenser. After 30 min incubation at room temperature, the luminescence intensity in the plates was measured using a ViewLux plate reader (PerkinElmer).
# Potency is read from the fitted curve at half-maximal effect.
smiles,measurement,setting,value
CCCCN(CCCC)C(=S)[S-].CCCCN(CCCC)C(=S)[S-].[Zn+2],Potency,[1],inactive [sample A] and active: 61.1 µM [sample B]
CC[C@H](C)[C@H]1O[C@]2(C=C[C@@H]1C)C[C@@H]1C[C@@H](C/C=C(\C)[C@@H](O[C@H]3C[C@H](OC)[C@@H](O[C@H]4C[C@H](OC)[C@@H](O)[C@H](C)O4)[C@H](C)O3)[C@@H](C)/C=C/C=C3\CO[C@@H]4[C@H](O)C(C)=C[C@@H](C(=O)O1)[C@]34O)O2,Potency,[1],inactive [sample A] and active: 36.1 µM [sample B]
same,Potency,[2],inactive [sample A] and active: 10.3 µM [sample B]
C[C@H]1CC[C@@H]2[C@@H](C)[C@H]3[C@H](C[C@H]4[C@@H]5CC=C6CC(O[C@@H]7O[C@H](CO)[C@H](O)[C@H](O[C@@H]8O[C@H](CO)[C@@H](O)[C@H](O)[C@H]8O)[C@H]7O[C@H]7O[C@@H](C)[C@H](O)[C@@H](O)[C@H]7O)CC[C@]6(C)[C@H]5CC[C@]34C)N2C1 (some centres not stated),Potency,[3],active: 24.8 µM [sample A] and inactive [sample B]
same,Potency,[4],active: 23.7 µM [sample A] and inactive [sample B]
Cc1cc(N=Nc2ccccc2C)ccc1N,Potency,[3],active: 61.1 µM [sample A] and inactive [sample B]
Clc1ccc(C(c2ccc(Cl)cc2)C(Cl)(Cl)Cl)cc1,Potency,[5],active: 49 µM [sample A] and inactive [sample B]
